Reference: US11117930B2, “Peptide inhibitors of transcription factor aggregation” (ADRX, INC., priority 2017, dated 2021)
pIC50: −log10 of the molar value. Part of at least one peptide drawing is inferred or uncertain, most often the ends. For at least one compound, name, drawing or mass did not settle the structure. Non-standard residues stand in square brackets, D forms with d. Residues, ends and D or L forms follow the SMILES beside them. No end group written: not given here. Chg = N[C@H](C(=O)O)C1CCCCC1

Target: Nat1 (LTIITLE (SEQ ID NO: 225)) (Homo sapiens, UniProt P04637)
Experiment: Thioflavin T aggregation assay (Nat1)
Type: biochemical
Conditions: ThT fluorescence, 50 μM Nat1, pH6.0, room temperature, 2 hours
Method: The peptides of the invention were tested in an in vitro Thiofiavin T aggregation assay [see WO2014/182961]. An increase in Thioflavin T fluorescence is detected over time due to the formation of increasing amounts of amyloid to which the dye can specifically bind. […] For the Nat1 Stock Solution, Nat (LTIITLE (SEQ ID NO: 225), >95% Pure, TFA salt) is dissolved at 8 mM in 25 mM NaOH solution and kept at −80° C. Prior to the assay, it is diluted to 1 mM in H2O. The 2× Reaction Buffer is prepared with 200 mM Sodium Phosphate, pH6.0, 500 mM Sodium Chloride and 200 μM Thioflavin T (ThT). 100 μL of 2× reaction buffer and 80 μL of H2O are added to each well in black, clear-bottomed 96-well plate. Inhibitor peptides are dissolved in H2O to appropriate concentrations to produce 6-points dose response curves. 10 μL of dissolved peptide or H2O (control) is added to each reaction well. 10 μL of 1 mM Nat1 peptide is added to each reaction well (a final concentration of 50 μM). ThT fluorescence is monitored at room temperature every minute for 2 hours with excitation and emission wavelengths of 440 and 485 nm, respectively. IC50 values are calculated using Graphpad Prism.

| Molecule | pIC50 |
| --- | --- |
| N=C(N)NCCC[C@@H](NC(=O)[C@@H](CCC(N)=O)NC(=O)[C@@H](Cc1ccc(O)cc1)NC(=O)[C@@H](Cc1ccc(O)cc1)NC(=O)[C@@H](Cc1ccc(O)cc1)NC(=O)[C@@H](CCC(N)=O)NC(=O)[C@H](N)Cc1ccc(O)cc1)C(=O)O [yqyyyqr] (H-[dY][dQ][dY][dY][dY][dQ][dR]-OH; N-terminus and C-terminus assumed) | 6.93 |
| N=C(N)NCCC[C@@H](NC(=O)[C@@H](Cc1c[nH]c2ccccc12)NC(=O)[C@@H](Cc1c[nH]cn1)NC(=O)[C@@H](Cc1ccc(O)cc1)NC(=O)[C@@H](Cc1c[nH]c2ccccc12)NC(=O)[C@@H](CCC(N)=O)NC(=O)[C@H](N)CCCCN)C(=O)O [kqwyhwr] (H-[dK][dQ][dW][dY][dH][dW][dR]-OH; N-terminus and C-terminus assumed) | 6.60 |
| IRIRHYRP [IRIRHYRP] | 6.85 |
| IWIRRWR [IWIRRWR] | 5.72 |
| WTIRTWH [WTIRTWH] | 6.11 |
| C[C@@H](NC(=O)[C@H](N)Cc1ccccc1)C(=O)N[C@H](CCCNC(=N)N)C(=O)N[C@H](Cc1c[nH]c2ccccc12)C(=O)N[C@H](Cc1c[nH]cn1)C(=O)N[C@H](CCCNC(=N)N)C(=O)N[C@H](CCCNC(=N)N)C(=O)O [farwhrr] (H-[dF][dA][dR][dW][dH][dR][dR]-OH; N-terminus and C-terminus assumed) | 6.54 |
| YTYMLWK [YTYMLWK] | 6.08 |
| CC(C)[C@@H](NC(=O)[C@H](N)CCC(N)=O)C(=O)N[C@H](CCCNC(=N)N)C(=O)N[C@H](Cc1ccc(O)cc1)C(=O)N[C@H](Cc1c[nH]cn1)C(=O)N[C@H](CCCCN)C(=O)N[C@H](CC(N)=O)C(=O)O [qvryhkn] (H-[dQ][dV][dR][dY][dH][dK][dN]-OH; N-terminus and C-terminus assumed) | 5.24 |
| N=C(N)NCCC[C@@H](NC(=O)[C@@H](Cc1c[nH]cn1)NC(=O)[C@@H](Cc1c[nH]c2ccccc12)NC(=O)[C@@H](CCCNC(=N)N)NC(=O)[C@@H](Cc1c[nH]c2ccccc12)NC(=O)[C@H](N)Cc1ccccc1)C(=O)O [fwrwhr] (H-[dF][dW][dR][dW][dH][dR]-OH; N-terminus and C-terminus assumed) | 7.06 |
| N=C(N)NCCC[C@H](NC(=O)[C@H](Cc1ccc(O)cc1)NC(=O)[C@H](CCCNC(=N)N)NC(=O)[C@H](CCCNC(=N)N)NC(=O)[C@@H](NC(=O)[C@H](CCCNC(=N)N)NC(=O)[C@@H](N)C1CCCCC1)C1CCCCC1)C(=O)O [Chg-Arg-Chg-Arg-Arg-Tyr-Arg] (H-[Chg]R[Chg]RRYR-OH; N-terminus and C-terminus assumed) | 7.17 |
| N=C(N)NCCC[C@@H](NC(=O)[C@@H](Cc1c[nH]c2ccccc12)NC(=O)[C@@H](Cc1c[nH]cn1)NC(=O)[C@@H](Cc1ccccc1)NC(=O)[C@@H](CCCNC(=N)N)NC(=O)[C@@H](Cc1c[nH]c2ccccc12)NC(=O)[C@H](N)Cc1c[nH]c2ccccc12)C(=O)O [wwrfhwr] (H-[dW][dW][dR][dF][dH][dW][dR]-OH; N-terminus and C-terminus assumed) | 6.33 |
| LFRYYQK [LFRYYQK] | 7.00 |
| LFIKYHR [LFIKYHR] | 6.68 |
| N=C(N)NCCC[C@@H](N)C(=O)N[C@H](Cc1ccccc1)C(=O)N[C@H](Cc1ccc(O)cc1)C(=O)N[C@H](CCCNC(=N)N)C(=O)N[C@H](Cc1c[nH]cn1)C(=O)N[C@H](Cc1c[nH]cn1)C(=O)N[C@H](CCCNC(=N)N)C(=O)O [rfyrhhr] (H-[dR][dF][dY][dR][dH][dH][dR]-OH; N-terminus and C-terminus assumed) | 6.61 |
| IRIRAAR [IRIRAAR] | 6.35 |
| N=C(N)NCCC[C@@H](N)C(=O)N[C@H](CCC(N)=O)C(=O)N[C@H](Cc1c[nH]cn1)C(=O)N[C@H](Cc1ccc(O)cc1)C(=O)N[C@H](Cc1c[nH]cn1)C(=O)N[C@H](Cc1c[nH]c2ccccc12)C(=O)N[C@H](CCCNC(=N)N)C(=O)O [rqhyhwr] (H-[dR][dQ][dH][dY][dH][dW][dR]-OH; N-terminus and C-terminus assumed) | 6.53 |
| N=C(N)NCCC[C@@H](NC(=O)[C@@H](Cc1c[nH]c2ccccc12)NC(=O)[C@@H](Cc1c[nH]cn1)NC(=O)[C@@H](CCCNC(=N)N)NC(=O)[C@@H](Cc1c[nH]c2ccccc12)NC(=O)[C@@H](CCC(N)=O)NC(=O)[C@H](N)Cc1ccc(O)cc1)C(=O)O [yqwrhwr] (H-[dY][dQ][dW][dR][dH][dW][dR]-OH; N-terminus and C-terminus assumed) | 6.95 |
| WTIKLWH [WTIKLWH] | 7.08 |

| Molecule | pIC50 |
| --- | --- |
| YTRITYH [YTRITYH] | 6.82 |
| ALIKYHR [ALIKYHR] | 6.20 |
| WYIRLTH [WYIRLTH] | 6.43 |
| CSCC[C@@H](NC(=O)[C@@H](CCC(N)=O)NC(=O)[C@H](N)CCCNC(=N)N)C(=O)N[C@H](CCC(N)=O)C(=O)N[C@H](Cc1ccc(O)cc1)C(=O)N[C@H](CCCNC(=N)N)C(=O)N[C@H](CCCNC(=N)N)C(=O)O [rqmqyrr] (H-[dR][dQ][dM][dQ][dY][dR][dR]-OH; N-terminus and C-terminus assumed) | 6.63 |
| N=C(N)NCCC[C@@H](NC(=O)[C@@H](Cc1ccc(O)cc1)NC(=O)[C@@H](Cc1c[nH]c2ccccc12)NC(=O)[C@@H](CCCNC(=N)N)NC(=O)[C@@H](Cc1ccc(O)cc1)NC(=O)[C@H](N)CCCCN)C(=O)N[C@H](Cc1c[nH]cn1)C(=O)O [kyrwyrh] (H-[dK][dY][dR][dW][dY][dR][dH]-OH; N-terminus and C-terminus assumed) | 7.06 |
| CC(C)C[C@@H](N)C(=O)N[C@H](Cc1c[nH]c2ccccc12)C(=O)N[C@H](CCCNC(=N)N)C(=O)N[C@H](CCCNC(=N)N)C(=O)N[C@H](Cc1ccc(O)cc1)C(=O)N[C@H](Cc1c[nH]cn1)C(=O)N[C@H](CCCNC(=N)N)C(=O)O [lwrryhr] (H-[dL][dW][dR][dR][dY][dH][dR]-OH; N-terminus and C-terminus assumed) | 6.97 |
| WTRITLE [WTRITLE, reference compound] | 5.87 |
| N=C(N)NCCC[C@@H](NC(=O)[C@@H](CCCNC(=N)N)NC(=O)[C@@H](Cc1c[nH]cn1)NC(=O)[C@@H](Cc1ccccc1)NC(=O)[C@@H](CCCNC(=N)N)NC(=O)[C@@H](Cc1ccccc1)NC(=O)[C@H](N)Cc1ccccc1)C(=O)O [ffrfhrr] (H-[dF][dF][dR][dF][dH][dR][dR]-OH; N-terminus and C-terminus assumed) | 6.98 |
| N=C(N)NCCC[C@@H](NC(=O)[C@@H](Cc1c[nH]cn1)NC(=O)[C@@H](Cc1ccc(O)cc1)NC(=O)[C@@H](Cc1ccccc1)NC(=O)[C@@H](CCCNC(=N)N)NC(=O)[C@@H](Cc1ccccc1)NC(=O)[C@H](N)CCCCN)C(=O)O [kfrfyhr] (H-[dK][dF][dR][dF][dY][dH][dR]-OH; N-terminus and C-terminus assumed) | 7.49 |
| FRIRRYR [FRIRRYR] | 6.73 |
| N=C(N)NCCC[C@@H](NC(=O)[C@@H](Cc1c[nH]c2ccccc12)NC(=O)[C@@H](Cc1ccc(O)cc1)NC(=O)[C@@H](Cc1ccc(O)cc1)NC(=O)[C@@H](CCCNC(=N)N)NC(=O)[C@@H](CCC(N)=O)NC(=O)[C@H](N)Cc1c[nH]cn1)C(=O)O [hqryywr] (H-[dH][dQ][dR][dY][dY][dW][dR]-OH; N-terminus and C-terminus assumed) | 6.86 |
| LTIQLWH [LTIQLWH] | 6.32 |
| CSCC[C@@H](NC(=O)[C@@H](CCCNC(=N)N)NC(=O)[C@@H](Cc1ccccc1)NC(=O)[C@H](N)CCC(N)=O)C(=O)N[C@H](Cc1c[nH]cn1)C(=O)N[C@H](Cc1c[nH]cn1)C(=O)N[C@H](CCCNC(=N)N)C(=O)O [qfrmhhr] (H-[dQ][dF][dR][dM][dH][dH][dR]-OH; N-terminus and C-terminus assumed) | 6.74 |
| CC(C)C[C@@H](NC(=O)[C@H](N)Cc1c[nH]cn1)C(=O)N[C@H](CCCNC(=N)N)C(=O)N[C@H](Cc1ccc(O)cc1)C(=O)N[C@H](Cc1c[nH]cn1)C(=O)N[C@H](CCCNC(=N)N)C(=O)N[C@H](CCCCN)C(=O)O [hlryhrk] (H-[dH][dL][dR][dY][dH][dR][dK]-OH; N-terminus and C-terminus assumed) | 6.72 |
| CC(C)C[C@@H](NC(=O)[C@H](N)CCC(N)=O)C(=O)N[C@H](CCCCN)C(=O)N[C@H](Cc1c[nH]c2ccccc12)C(=O)N[C@H](CC(C)C)C(=O)N[C@H](Cc1c[nH]cn1)C(=O)O [qlkwlh] (H-[dQ][dL][dK][dW][dL][dH]-OH; N-terminus and C-terminus assumed) | 6.15 |
| C[C@@H](NC(=O)[C@@H](Cc1c[nH]c2ccccc12)NC(=O)[C@H](N)Cc1ccccc1)C(=O)N[C@H](Cc1c[nH]c2ccccc12)C(=O)N[C@H](Cc1c[nH]cn1)C(=O)N[C@H](CCCNC(=N)N)C(=O)N[C@H](CCCNC(=N)N)C(=O)O [fwawhrr] (H-[dF][dW][dA][dW][dH][dR][dR]-OH; N-terminus and C-terminus assumed) | 6.62 |
| WTRITLK [WTRITLK] | 6.65 |
| N=C(N)NCCC[C@@H](N)C(=O)N[C@H](Cc1ccccc1)C(=O)N[C@H](Cc1ccc(O)cc1)C(=O)N[C@H](Cc1ccc(O)cc1)C(=O)N[C@H](Cc1c[nH]cn1)C(=O)N[C@H](CCCNC(=N)N)C(=O)N[C@H](CCCNC(=N)N)C(=O)O [rfyyhrr] (H-[dR][dF][dY][dY][dH][dR][dR]-OH; N-terminus and C-terminus assumed) | 7.12 |
